In patent publication USRE38425E1, “Semicarbazones having CNS activity and pharmaceutical preparations containing same” (University of Saskatchewan Technologies, Inc., priority 1995, dated 2004):
Like-named read-outs stand apart in the source and are kept apart here.

What was measured:
[1] = system: mice; assay: MES screen after intraperitoneal injection in mice; type: in vivo; details: doses of 30, 100 and 300 mg/kg
[2] = system: mice; details: intraperitoneal injection in mice, doses of 30, 100 and 300 mg/kg
[3] = system: mice; details: intraperitoneal injection in mice, doses of 30, 100 and 300 mg/kg; remark: listed apart in the source

Compound	MES screen: minimum dose whereby bioactivity was demonstrated in half or more of the mice ([1]; 0.5 h) [mg/kg]	MES screen: minimum dose whereby bioactivity was demonstrated in half or more of the mice ([1]; 4 h) [mg/kg]	acPTZ screen: minimum dose whereby bioactivity was demonstrated in half or more of the mice ([2]; 4 h) [mg/kg]	toxicity screen: minimum dose whereby bioactivity was demonstrated in half or more of the mice ([3]; 0.5 h) [mg/kg]	toxicity screen: minimum dose whereby bioactivity was demonstrated in half or more of the mice ([3]; 4 h) [mg/kg]	MES screen 0.5 h: minimum dose whereby bioactivity was demonstrated in half or more of the mice ([1]; 0.5 h) [mg/kg]	MES screen 4 h: minimum dose whereby bioactivity was demonstrated in half or more of the mice ([1]; 4 h) [mg/kg]	acPTZ screen 4 h: minimum dose whereby bioactivity was demonstrated in half or more of the mice ([2]; 4 h) [mg/kg]	toxicity screen 0.5 h: minimum dose whereby bioactivity was demonstrated in half or more of the mice ([3]; 0.5 h) [mg/kg]	toxicity screen 4 h: minimum dose whereby bioactivity was demonstrated in half or more of the mice ([3]; 4 h) [mg/kg]	acPTZ screen 0.5 h: minimum dose whereby bioactivity was demonstrated in half or more of the mice ([2]; 0.5 h) [mg/kg]	acPTZ screen: minimum dose whereby bioactivity was demonstrated in half or more of the mice ([2]; 0.5 h) [mg/kg]
CC(=NNC(N)=O)c1ccc(Oc2ccc(Cl)cc2)cc1 [Compound 13c]	30	30	30	30	100							
CCCCc1ccc(Oc2ccc(C=NNC(N)=O)cc2)cc1 [Compound 5r]						100	30	100	300	100		
CCCCOc1ccc(Oc2ccc(C=NNC(N)=O)cc2)cc1 [Compound 5u]						300	100	300	300	300	300	
NC(=O)NN=Cc1ccc(Sc2ccc(Cl)cc2)cc1 [Compound 16b]	100	30			100							300
CCC(=NNC(N)=O)c1ccc(Oc2ccc(Br)cc2)cc1 [Compound 13h]	30	30		300	100							100
NC(=O)NN=Cc1ccc(Oc2ccc(-c3ccccc3)cc2)cc1 [Compound 4g]							300	300		300		
CC(=NNC(N)=O)c1ccc(Oc2ccc(F)cc2)cc1 [Compound 13b]	30	30		300	100							100
CCC(=NNC(N)=O)c1ccc(Oc2ccc(F)cc2)cc1 [Compound 13f]	30	30		300	100							100
CC(=NNC(N)=O)c1ccccc1Oc1ccccc1 [14a]	300			300								300
Cc1ccccc1Oc1ccc(C=NNC(N)=O)cc1 [Compound 5n]						30	100	100	300	300	100	
CC(=NNC(N)=O)c1ccc(Oc2ccc(Br)cc2)cc1 [Compound 13d]	30	30		300	100							300
NC(=O)NN=Cc1ccc(Oc2ccc(Cl)cc2)cc1 [Compound 4c]						30	30		300	30	30	
NC(=O)NN=Cc1ccc(OS(=O)(=O)c2ccccc2)cc1 [Compound 15f]	30	30		300	300							30
